The supplement of paper PMC3334620
Whole data set: some 33,000 sequences, median “E-score (-0.5 to 0.5)” near -0.016, cut for the highest 2% near 0.31. The list shows a part of the results.

These sequences were tested against Cst6 (UniProt P40535) (assay: PBM E-score (8-mer binding enrichment) (E-score (-0.5 to 0.5)); higher = stronger / more preferred TF binding; most listed sequences are background and not binding sites). Settings: protein concentration: 200 nM; construct: GST-DNA-binding domain.
Experimental: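 Universal 'all 10-mer' protein binding microarrays (Agilent AMADID 015681) probed with GST-tagged S. cerevisiae TFs (full-length or DBD) made by in vitro transcription/translation (PURExpress), about 100-200 nM. Bound TF was detected with fluorescent anti-GST. Each ungapped 8-mer (which stands for itself and its reverse complement) is scored by the PBM enrichment score (E-score), a modified Wilcoxon-Mann-Whitney statistic from -0.5 to +0.5, computed with the Universal PBM Analysis Suite. Scale: above 0.35 generally sequence-specific binding.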
With AGTTAGTC the “PBM E-score” value was -0.119.
With ACGCAAGT the “PBM E-score” value was 0.169.
With AATTGCGC the “PBM E-score” value was 0.309.
For CATGGTAA, the “PBM E-score” value was 0.131.
With ACGTATAC the “PBM E-score” value was 0.307.
With CTTTCCAC the “PBM E-score” value was 0.125.
With GGCTAGTA the “PBM E-score” value was 0.0949.
For AGTTAGGA, the “PBM E-score” value was 0.00564.
For ACTTCCCG, the “PBM E-score” value was -0.105.
ACCCTCGT was tested, and the “PBM E-score” value was -0.0894.
With ACGGACTC the “PBM E-score” value was -0.251.
With GCAACCCC the “PBM E-score” value was -0.303.
With ACTGAGAA the “PBM E-score” value was -0.0352.
For ATGACGAG, the “PBM E-score” value was 0.398.
For ATAAATGG, the “PBM E-score” value was 0.156.
In the case of CGGGATTA, the “PBM E-score” value is reported as 0.109.
ACATTTAT was tested, and the “PBM E-score” value was 0.15.
With GCTCTTTA the “PBM E-score” value was 0.0642.
For CTCTCTGC, the “PBM E-score” value was -0.249.
ACCCACGT was tested, and the “PBM E-score” value was 0.0287.
AAACGGTA was tested, and the “PBM E-score” value was 0.112.
With ATCGTTGA the “PBM E-score” value was 0.0312.
For AGCATTAG, the “PBM E-score” value was -0.0629.
ATCGTCAA was tested, and the “PBM E-score” value was 0.223.
For CACCTTAG, the “PBM E-score” value was 0.00913.
In the case of CTAAGAAG, the “PBM E-score” value is reported as 0.138.
With CAAACCCA the “PBM E-score” value was -0.00988.
With GAGCGACC the “PBM E-score” value was -0.224.
In the case of CACTCCCG, the “PBM E-score” value is reported as -0.0804.
For CGGACAAG, the “PBM E-score” value was -0.0342.
For AGTAAATC, the “PBM E-score” value was 0.111.
For GGATAAGA, the “PBM E-score” value was -0.0159.
With AACACGCC the “PBM E-score” value was -0.0537.
GAAATGTC was tested, and the “PBM E-score” value was -0.123.
AAGATTGA was tested, and the “PBM E-score” value was 0.233.
GAATAGTA was tested, and the “PBM E-score” value was 0.0771.
In the case of CGTATCCA, the “PBM E-score” value is reported as -0.111.
In the case of TACATTAA, the “PBM E-score” value is reported as 0.19.
AGATTTAG was tested, and the “PBM E-score” value was 0.0908.
In the case of CTCTTGTC, the “PBM E-score” value is reported as 0.0332.
With ATGGCCAA the “PBM E-score” value was -0.021.
With GTGTAATA the “PBM E-score” value was 0.214.
In the case of GCGGGCCA, the “PBM E-score” value is reported as -0.284.
ATCAAAGG was tested, and the “PBM E-score” value was -0.0902.
With ATGAGACC the “PBM E-score” value was -0.11.
For CAAGGGCA, the “PBM E-score” value was -0.307.
In the case of ACGCCATC, the “PBM E-score” value is reported as 0.0988.
In the case of CCACCGAA, the “PBM E-score” value is reported as -0.0423.
In the case of ATTCATGA, the “PBM E-score” value is reported as 0.202.
With AATTATCC the “PBM E-score” value was 0.188.
For ACATGGTA, the “PBM E-score” value was 0.0633.
CGTCTTGA was tested, and the “PBM E-score” value was -0.0177.
With AACAGAAA the “PBM E-score” value was 0.213.
In the case of ACGATGGC, the “PBM E-score” value is reported as 0.0254.
In the case of GTACAACA, the “PBM E-score” value is reported as 0.23.
In the case of GTACACAA, the “PBM E-score” value is reported as 0.0535.
For CTATGACA, the “PBM E-score” value was 0.264.
GCAGGAAC was tested, and the “PBM E-score” value was -0.196.
In the case of ATACATGC, the “PBM E-score” value is reported as -0.0391.
In the case of CGCGTTCA, the “PBM E-score” value is reported as 0.133.
CATGCCGG was tested, and the “PBM E-score” value was 0.0708.
For CCATTATA, the “PBM E-score” value was 0.0936.
ATGGTTTA was tested, and the “PBM E-score” value was 0.0866.
With CTCGTTGC the “PBM E-score” value was 0.17.
TACTGGGA was tested, and the “PBM E-score” value was -0.0281.
In the case of TGTGTTAA, the “PBM E-score” value is reported as 0.173.
In the case of AGCGAGGG, the “PBM E-score” value is reported as -0.219.
CGAAAGAA was tested, and the “PBM E-score” value was -0.0106.
With AGTGCGAC the “PBM E-score” value was -0.108.
ACCCGAGG was tested, and the “PBM E-score” value was -0.146.
For ACAGAAGT, the “PBM E-score” value was 0.134.
In the case of ATCGATCA, the “PBM E-score” value is reported as 0.104.
In the case of TCACCTGA, the “PBM E-score” value is reported as -0.0189.
With GCCAGCCC the “PBM E-score” value was -0.311.
In the case of CCATGGAC, the “PBM E-score” value is reported as -0.158.
For CCGTAAAC, the “PBM E-score” value was 0.0456.
For AGGCGACC, the “PBM E-score” value was -0.0847.
With GATCATCA the “PBM E-score” value was 0.163.
ACGCCTCT was tested, and the “PBM E-score” value was 0.00882.
In the case of CGCCGATA, the “PBM E-score” value is reported as -0.0288.
With ACCGAAGC the “PBM E-score” value was -0.16.
For ATCGCGCG, the “PBM E-score” value was 0.268.
In the case of ACGAAGGC, the “PBM E-score” value is reported as -0.0356.
CGAGCCTC was tested, and the “PBM E-score” value was -0.223.
For CCGCAGGA, the “PBM E-score” value was -0.234.
With CACTGGAA the “PBM E-score” value was -0.0184.
With GACAAGCA the “PBM E-score” value was -0.139.
For ATTCTTTC, the “PBM E-score” value was 0.0948.
For GAGCGAGA, the “PBM E-score” value was 0.149.
With AAGCTCGT the “PBM E-score” value was -0.0807.
With ACTGGAAA the “PBM E-score” value was 0.108.
GGCCTGAC was tested, and the “PBM E-score” value was -0.18.
ACATTAGG was tested, and the “PBM E-score” value was -0.138.
In the case of CTTGACAA, the “PBM E-score” value is reported as 0.0373.
GAGGCGAA was tested, and the “PBM E-score” value was 0.0301.
CGAGGGTC was tested, and the “PBM E-score” value was -0.34.
For ATGTGGGA, the “PBM E-score” value was -0.164.
For GCTGTACA, the “PBM E-score” value was -0.197.
For AATTTGCG, the “PBM E-score” value was 0.0719.
For GAACATTC, the “PBM E-score” value was -0.053.
In the case of GGACGCGA, the “PBM E-score” value is reported as -0.156.
In the case of AGCTGTAT, the “PBM E-score” value is reported as -0.18.
ACCTTACC was tested, and the “PBM E-score” value was 0.0399.
TAGCAACA was tested, and the “PBM E-score” value was 0.179.
With CCGCTAGC the “PBM E-score” value was -0.299.
For CGAGTTTC, the “PBM E-score” value was -0.0728.
With ACGGCGTG the “PBM E-score” value was 0.314.
In the case of AGTGGTTG, the “PBM E-score” value is reported as 0.0902.
For GAAGGACC, the “PBM E-score” value was -0.26.
With GAATAGCC the “PBM E-score” value was -0.203.
In the case of AACAGCGA, the “PBM E-score” value is reported as -0.204.
With ATGAACAA the “PBM E-score” value was 0.225.
With AATAGGCA the “PBM E-score” value was 0.148.
For GAGGCTAC, the “PBM E-score” value was -0.303.
With AGTGCTTG the “PBM E-score” value was -0.0818.
With CGAATGTC the “PBM E-score” value was 0.00819.
ATTTGCCG was tested, and the “PBM E-score” value was 0.162.
CTCTCCTA was tested, and the “PBM E-score” value was 0.0971.
For AACATACG, the “PBM E-score” value was 0.253.
AATGCCCG was tested, and the “PBM E-score” value was -0.269.
AAGCACCA was tested, and the “PBM E-score” value was -0.239.
ACCAATAG was tested, and the “PBM E-score” value was -0.271.
With CCTCTGCC the “PBM E-score” value was -0.258.
ACTCTACA was tested, and the “PBM E-score” value was -0.0195.
AGCACGCT was tested, and the “PBM E-score” value was -0.162.
CACTCCGA was tested, and the “PBM E-score” value was -0.0718.
For TCCATGCA, the “PBM E-score” value was 0.067.
In the case of AAAGGTCG, the “PBM E-score” value is reported as -0.135.
In the case of CTTACGTC, the “PBM E-score” value is reported as 0.421.
For TCATTAAA, the “PBM E-score” value was 0.352.
TCTTAAAA was tested, and the “PBM E-score” value was -0.00317.
CTTAGTAA was tested, and the “PBM E-score” value was 0.174.
In the case of GTTATGGA, the “PBM E-score” value is reported as 0.205.
In the case of ACTGTAGG, the “PBM E-score” value is reported as 0.102.
ACGAAGGA was tested, and the “PBM E-score” value was 0.0355.
ACCGACCT was tested, and the “PBM E-score” value was -0.142.
With CTCCACGC the “PBM E-score” value was -0.124.
In the case of CCCTAGTA, the “PBM E-score” value is reported as -0.212.
CATGGTGA was tested, and the “PBM E-score” value was 0.193.
For GCGTCCCC, the “PBM E-score” value was -0.317.
For AGGGTGGC, the “PBM E-score” value was -0.189.
With CGCTCGAG the “PBM E-score” value was 0.0728.
With CTACTCCA the “PBM E-score” value was -0.239.
GACTGAGA was tested, and the “PBM E-score” value was 0.00784.
In the case of ACTCGCCT, the “PBM E-score” value is reported as -0.027.
With GCTACTTA the “PBM E-score” value was -0.0566.
ACTAACGG was tested, and the “PBM E-score” value was -0.0532.
For ATGGCGTA, the “PBM E-score” value was 0.24.
GATAACAA was tested, and the “PBM E-score” value was 0.166.
For GAAGACTA, the “PBM E-score” value was -0.0371.
For GATGGCCC, the “PBM E-score” value was -0.106.
For CATGGCTC, the “PBM E-score” value was 0.085.
In the case of CCCAGGGC, the “PBM E-score” value is reported as -0.337.
For GGTCAAAA, the “PBM E-score” value was 0.126.
CATGTGAA was tested, and the “PBM E-score” value was -0.0897.
CCAATGTC was tested, and the “PBM E-score” value was 0.0141.
For ACCGGACC, the “PBM E-score” value was -0.247.
With AACAGGAT the “PBM E-score” value was 0.0183.
In the case of GGGCCAAC, the “PBM E-score” value is reported as -0.264.
With CTTTGGCA the “PBM E-score” value was -0.23.
For AAAAGGAA, the “PBM E-score” value was 0.139.
In the case of GACTCTGC, the “PBM E-score” value is reported as -0.139.
In the case of GGAATGTA, the “PBM E-score” value is reported as -0.0683.
CTACCTAA was tested, and the “PBM E-score” value was 0.153.
In the case of AGCTGGAC, the “PBM E-score” value is reported as -0.194.
In the case of AAAACTAC, the “PBM E-score” value is reported as 0.146.
With ATGGCTCA the “PBM E-score” value was -0.0125.
For AATGTCCT, the “PBM E-score” value was -0.118.
In the case of AGGTACTC, the “PBM E-score” value is reported as -0.181.
For ACCTGCGG, the “PBM E-score” value was -0.17.
For CGCATGCC, the “PBM E-score” value was 0.0832.
CACGATCA was tested, and the “PBM E-score” value was 0.242.
